The campaign covered roughly 340,000 compounds. About 530 (0.16%) were called active. The inconclusive results got no clear call from the source; some entries with a clear call stand among them for comparison. No stated cut-off is given here; in the data, active means activity change below about -80%; inconclusive means between about -30% and that limit; inactive means weaker than that.
Experiment: Small Molecules that selectively kill Giardia lamblia: qHTS;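 further: parasites exposed to compound for two days anaerobically before the ATP read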
Settings: Giardia lamblia trophozoite viability; at 7.66 µM; stronger effect = lower value
From the text: Giardia lamblia is a human pathogen afflicting impoverished nations, and the most common cause of outbreaks of diarrhea in the United States. Giardia has been classified by the CDC as a category B bioterrorism organism. The favored anti giardiasis drugs in the US are metronidazole or tinidazole, compounds that have undesirable side effects. Moreover, increasing resistance to drug regimes and recurrence are a concern. It is thus clear that alternative drug treatments are needed.
In a collaboration between the University of Maryland, College Park and the NIH Chemical Genomics Center, a bioluminescence Giardia viability assay based on the trophozoites' ATP content was developed. This assay is suitable for high throughput screening, and miniaturized the assay for compound screening in 1536-well plates. The goal of the project is to screen the Molecular Libraries Small Molecule Repository (MLSMR) for compounds that selectively kill Giardia trophozoites.
NIH Chemical Genomics Center [NCGC]
NIH Molecular Libraries Probe Centers Network [MLPCN]
Assay Submitter (PI): Osnat Herzberg, University of Maryland, College Park, MD.
1. Dispense 2 ul/well media
2. Dispense 23 nl/well compounds
3. Dispense 4 ul/well Giardia trophozoites at a concentration of 100 cells/well
4. Incubate 48 hrs at 37 deg C anaerobically
5. Dispense 4 ul/well ATPLite 1-Step Luminescence assay kit
6. Incubate 15-30 min at room temperature
7. Read luminescence signal on ViewLux plate reader
On the % scale 0 is the no-effect control and ±100 the full control effect.

SMILES	activity change
Cn1c2ccccc2c(=O)c2ccc(C#CC3(O)CCCCC3)cc21	inconclusive: -32.7% [inhibitor]
CC(=O)Nc1ccc(/C=C/c2noc(-c3ccccc3O)n2)cc1	inconclusive: -46.5% [inhibitor]
CCN(CC)S(=O)(=O)c1cc([N+](=O)[O-])ccc1NNC(=O)Nc1ccc(F)cc1	inactive: 12.4%
O=C(N/N=C/c1ccc([N+](=O)[O-])o1)c1sc2ccccc2c1Cl	active: -94.9%
O=[N+]([O-])c1cccn2cc(-c3ccc(Br)cc3)nc12	active: -98.9%
Cc1cc2c(=O)n(CC(=O)NCC(=O)Nc3ccc(C(C)C)cc3)cnc2s1	inconclusive: -35.6% [inhibitor]
Cc1ccc(C)c(NC(=O)Cn2c([N+](=O)[O-])cnc2C)c1	inconclusive: -36.4% [inhibitor]
CSc1nc2nc3c(cc2c(=O)n1-c1ccccc1C)CCCC3	inconclusive: -38.9% [inhibitor]
O=C(O)c1cn(-c2ccccc2)nc1-c1ccc(F)cc1	inactive: 20.7%
C=CCn1c(O)c(N=NC(=O)OCC)c2ccccc21	inactive: -14.2%
COC(=O)c1c(NC(=O)COC(=O)c2ccc(C)s2)sc2c1CCCCC2	inconclusive: -32.2% [inhibitor]
COc1ccc(C(=O)NNC(=O)c2ccc(C)cc2)cc1S(=O)(=O)N1CCCC1	inactive: 2.31%
Cc1ccc(NC(=O)CSc2nc(=O)cc(N)n2-c2ccccc2)cc1	inactive: -2.01%
CC1(C)Oc2ccc3ccc(=O)oc3c2C(/C=N/O)C1=O (stereo unspecified)	inconclusive: -49.7% [inhibitor]
O=C(O)c1ccc(CSc2nc3ccccc3c(=O)n2-c2ccccc2)cc1	inconclusive: -40.3% [inhibitor]
Brc1ccc(CNc2nc3ccccc3n2CCN2CCCCC2)cc1	active: -83.4%
Cc1csc2ncc(C(=O)NCCc3ccccc3)c(=O)n12	inconclusive: -37.6% [inhibitor]
Cc1nc2cc(Nc3nnc(-c4ccccc4)c4ccccc34)ccc2n1C	inconclusive: -31.7% [inhibitor]
CC(OC(=O)c1ccc([N+](=O)[O-])s1)C(=O)NC1CCCCC1C (stereo unspecified)	active: -86.4%
Cc1cccc(C)c1NC(=O)CN1CCCC1	inconclusive: -32.4% [inhibitor]
Cc1cc(C(=O)NCC(=O)Nc2c(C)cccc2C)c2ccccc2n1	inconclusive: -34.5% [inhibitor]
CCOc1ccc(C(=O)C2CCN(CC(=O)Nc3ccccc3N3CCOCC3)CC2)cc1	inactive: 1.8%
O=C(N/N=C/c1cc2c(cc1[N+](=O)[O-])OCO2)c1ccccn1	inconclusive: -51% [inhibitor]
CCOC(=O)N1CCN(C(=S)Nc2ccc3nc(N4CCN(CC)CC4)cc(C)c3c2)CC1	inactive: -10.5%
O=C(COc1ccc(F)cc1)N(Cc1cccc(Br)c1)C1CCS(=O)(=O)C1 (stereo unspecified)	inconclusive: -32.5% [inhibitor]
Cc1nn2c(Nc3ccc(F)cc3)c3c(nc2c1-c1ccccc1)CCC3	inactive: 11.4%

SMILES	activity change
O=C1CCC(C(=O)N2CCSCC2)CN1Cc1ccc(Cl)cc1 (stereo unspecified)	inactive: 20.2%
CC(=O)c1c(C)nn(CC(O)Cn2c3c(c4cc(C)ccc42)CCCC3=O)c1C (stereo unspecified)	inactive: -7.16%
CCNc1nc(NCC)nc(N(C#N)C(C)C)n1	inconclusive: -31.4% [inhibitor]
CCS(=O)(=O)c1ccc(-c2cccc(NC(=O)COc3ccc(Cl)cc3)c2)nn1	inconclusive: -33.8% [inhibitor]
CC(C)CNC1=C(C(=S)Nc2ccccc2)C(=O)CC(C)(C)C1	inconclusive: -43.9% [inhibitor]
CCCn1c(C)cc(/C=C(\C#N)C(=O)OCC(=O)Nc2cccc(OC)c2)c1C	inconclusive: -33.3% [inhibitor]
O=C(COc1cccnc1[N+](=O)[O-])Nc1ccc2c(c1)OC(F)(F)O2	active: -84.1%
C=CCOC(=O)C1=C[C@@H](c2ccc3c(c2)OCO3)C[C@@H](OCCCCO)O1	inconclusive: -31.7% [inhibitor]
O=C(CN1CCN(c2ccccc2)CC1)Nc1ccncc1	inconclusive: -39.7% [inhibitor]
O=c1c2ccccc2nc(N/N=C/c2c(O)ccc3ccccc23)n1O	inconclusive: -32.1% [inhibitor]
CN1/C(=C/C=C(C#N)C#N)C=Cc2ccccc21	inconclusive: -30.7% [inhibitor]
CC(C)c1cc(C(C)C)c(S(=O)(=O)N2c3ccccc3[C@@]3(Br)C[C@H]4C(=O)N[C@@H](Cc5ccccc5)C(=O)N4[C@@H]23)c(C(C)C)c1	inconclusive: -31.2% [inhibitor]
O=C(CCCCn1c(=O)[nH]c2ccccc2c1=O)NC1CCN(Cc2ccccc2)CC1	inconclusive: -32.5% [inhibitor]
COc1ccccc1NCC(=O)N/N=C/c1c(O)ccc2ccccc12	inconclusive: -31.7% [inhibitor]
CN1CCN(c2ccc(NC(=O)c3ccc([N+](=O)[O-])o3)cc2Cl)CC1	inconclusive: -77.4% [inhibitor]
CC1CN(C(=O)/C=C/c2ccc([N+](=O)[O-])s2)CC(C)O1 (stereo unspecified)	inconclusive: -65% [inhibitor]
O=C(COC(=O)C1CC(=O)N(C2CCCCC2)C1)c1ccc(F)cc1 (stereo unspecified)	inconclusive: -43.7% [inhibitor]
CCC(=O)N(CCC(c1ccc(C)cc1)c1ccco1)Cc1ccco1 (stereo unspecified)	inactive: 0.588%
COCCCNC(=O)CCc1c(C)c2cc3c(C)coc3cc2oc1=O	inactive: -6.16%
CC(C)C[C@H](NC(=O)c1[nH]cnc1C(=O)N[C@H](C)c1ccccc1)C(=O)OCc1ccccc1	inconclusive: -51.8% [inhibitor]
CCOC(=O)/C(C#N)=C/c1c(N2CCCCCC2)nc2ccccn2c1=O	inconclusive: -32.8% [inhibitor]
O=C(CCc1ccccc1)Nc1ncc([N+](=O)[O-])s1	active: -95.3%
CCCS(=O)(=O)c1c(S(=O)(=O)CCC)c2c(C)cccn2c1C(=O)OC	inactive: -14.6%
O=S(=O)(c1cc(F)ccc1F)N1CCN(c2ccccn2)CC1	inconclusive: -30.1% [inhibitor]
CCOC(=O)C1CCCN(CC(=O)Nc2c(C(=O)OC)[nH]c3ccc(Cl)cc23)C1 (stereo unspecified)	inactive: -6.6%
COCc1ccc(CN2CCC(C(=O)Nc3cccc(-c4cscn4)c3)CC2)o1	inconclusive: -30.1% [inhibitor]

SMILES	activity change
Cc1nnc(N/N=C/c2cc([N+](=O)[O-])c(N3CCC(C)CC3)cc2N2CCC(C)CC2)n1N	inactive: 5.85%
COc1ccc(CC2(CO)CCN(CC3=Cc4cc(Cl)ccc4OC3)CC2)cc1	inactive: -22.1%
COc1cccc(NC(=O)Nc2nccc(C)n2)c1	inconclusive: -32.2% [inhibitor]
CC(=O)Nc1nnc(CSCc2ccc(F)cc2)s1	inconclusive: -31.4% [inhibitor]
Cc1ccc(S(=O)(=O)NCc2ccc(C(=O)N3CCc4ccccc4C3)cc2)cc1	inconclusive: -32.4% [inhibitor]
COc1cccc(CN2CC(C(=O)NC3CCC3)CCC2=O)c1 (stereo unspecified)	inconclusive: -33.7% [inhibitor]
O=C1OC(CN(Cc2ccccc2)Cc2ccccc2)CN1N=Cc1ccc([N+](=O)[O-])o1 (stereo unspecified)	active: -93.9%
CCOC(=O)C1=C(C)N=c2s/c(=C/c3cccc([N+](=O)[O-])c3O)c(=O)n2C1c1ccccc1 (stereo unspecified)	inconclusive: -62.7% [inhibitor]
CCCCC1=CC2=CC(=O)C(C)(OC(=O)c3cccs3)C(=O)C2=CO1 (stereo unspecified)	inconclusive: -36.9% [inhibitor]
CC(C)=CCC/C(C)=C/CNC(=O)C[C@H]1C[C@H](C(=O)N2CCCCC2)[C@@]2(C)c3[nH]c4cc(-c5ccco5)ccc4c3CCN2C1=O	inconclusive: -30.4% [inhibitor]
CCOC(=O)C1CCCN(c2c(NCCc3ccc(C)cc3)c(=O)c2=O)C1 (stereo unspecified)	inconclusive: -30.4% [inhibitor]
Cc1ccccc1-c1nc(CS(=O)CC(=O)NC(C)CCc2ccccc2)c(C)o1 (stereo unspecified)	inactive: -2.78%
N#Cc1c(Nc2ccccc2)[n+]([O-])c2ccc(Cl)cc2[n+]1[O-]	inconclusive: -60.2% [inhibitor]
O=C(COC(=O)CNC(=O)c1ccco1)Nc1ccc(F)cc1	inconclusive: -34.4% [inhibitor]
Cc1cc(C)n(-c2nc(Nc3ccccc3C(F)(F)F)nc(-n3nc(C)cc3C)n2)n1	inconclusive: -37.8% [inhibitor]
N#C/C(=C/c1ccccc1[N+](=O)[O-])c1nc(C2CC2)cs1	inconclusive: -33.2% [inhibitor]
COc1cccc(C(C)NC(=O)Nc2cccc(C(F)(F)F)c2)c1 (stereo unspecified)	inactive: 12.3%
COc1ccc(CN2CCC3CC2c2cc(-c4cccc(C)c4)ccc23)cc1 (stereo unspecified)	inconclusive: -32.8% [inhibitor]
COc1ccccc1-n1cc2c([N+](=O)[O-])cc([N+](=O)[O-])cc2n1	active: -85.3%
COC(=O)c1cccc(CSc2nc3ccccc3[nH]2)c1	inconclusive: -43.5% [inhibitor]
CN(CC(=O)NCc1cccs1)S(=O)(=O)c1cccc2cccnc12	inconclusive: -31.2% [inhibitor]
O=C(c1ccncc1)N1N=C(c2ccc(Br)cc2)CC1c1ccccc1O (stereo unspecified)	inactive: 3.38%
O=[N+]([O-])c1ccc(N2CCN(CCO)CC2)c2ncccc12	inconclusive: -50.2% [inhibitor]
CC(=O)N(C)c1cccc([N+](=O)[O-])c1	inconclusive: -33.5% [inhibitor]
